From publication PMC12136788 come the findings set out here.

The list shows a part of the results.

First the molecules themselves.
B1: chr16:94664741:94664742:+_ENSMUSG00000040785_ENSMUST00000117648|mus_hu|mus_mus_mus_hu_False|38_108 (ssRNA)
RNA: GGGAGUUCUACAGUCCGACGAUCUGGCAUGGAUCUUGGUAGCUGAUAUUCAGGAGAAAGGCUGGCCAAGGGUGUAUAUAUGCUGGUGUACUGGGGCAGGCUAGGUAACACGUUUAUGUAUGCUGGCGGUGUCUGGGUGAUAUCCAACAGAGGAUUGAGCAUCA
B2: chr1:130485734:130485735:-_ENSMUSG00000045382_ENSMUST00000052172|mus_mus|mus_mus_mus_hu_False|58_58 (ssRNA)
RNA: GGGAGUUCUACAGUCCGACGAUCGAUGAAGGAGUCGAUGCUGAUCCCAAUGUAGUAAGGCAGCCAACAGGCGAAGAAAGCUAGGAUGAGGAUGACUGUGGUCUUGAGGGCCUUGCGCUUCUGGUGGCCCUUGGAGUGUGACAGCAACAGAGGAUUGAGCAUCA
B3: chr13:77595817:77595818:-_ENSG00000005812_ENST00000355619|hu_hu|FALSE|FALSE (ssRNA)
RNA: GGGAGUUCUACAGUCCGACGAUCACAUCUCCACAAGUCAGGCAUGUGAAAUACCUGGUUCCAGUUGCGGCAAACUUGUGAAGCAUGAGCCCGGUCAAGAAGAGGCAAAUAUUUAAAUACUUGGAGAAUAAUGUCCUGAAGGAGCAACAGAGGAUUGAGCAUCA
B4: chr10:60562040:60562041:-_ENSMUSG00000020097_ENSMUST00000092498|mus_hu|FALSE|FALSE (ssRNA)
RNA: GGGAGUUCUACAGUCCGACGAUCUAGUCACAGUUGUUGGGUCAGUAGUACAGUGCUCAAGAACAAUUCAGACUAACAUGCCAAGGAGCCUGAGGAAAAGUCUGGUAGUCAUGGCUCUCCCAGCCAGCAUUCCCAGUGGGGGAACAACAGAGGAUUGAGCAUCA
B5: chr12:25358290:25358291:-_ENSG00000133703_ENST00000311936|hu_mus|FALSE|FALSE (ssRNA)
RNA: GGGAGUUCUACAGUCCGACGAUCGUACGGUUCAUGACAAAAAUAUUACAAAUUUCAGAUCACUUCACAGCACGUACUCCUAUAAACAUUUAAAAGUUAAUUUUAAUUAAGAGUGGUCACUUUUAAAUUUAAUGUUUGAUAUGACAACAGAGGAUUGAGCAUCA
B6: chr10:70028019:70028020:-_ENSMUSG00000037747_ENSMUST00000162251|mus_mus|motif|central (ssRNA)
RNA: GGGAGUUCUACAGUCCGACGAUCAGCCUUCUCCAGCAGCUGUGUUAGAUGAACUUUGGAGUAAUCUGCUGUACAGAAUUCGGUAAUCUCACUCCAUUCAGACACGACGUAAUCACCAUCAACCUGUUUUGAGGCAGUCUGUACCAACAGAGGAUUGAGCAUCA
B7: chr2:183792894:183792895:-_ENSG00000061676_ENST00000360982|hu_hu|FALSE|FALSE (ssRNA)
RNA: GGGAGUUCUACAGUCCGACGAUCUGCAAGCGCCAGAAAUUCUUUAAGACGGUCUUCAAUGCUUCCUUUGUGAAUUGUAAACAAAGCUGCAGCAAUCUGGUUGAUGGCUUUGGCCAAGCAAUGUAUGUUGUUGCAAUGCCCUUCCAACAGAGGAUUGAGCAUCA
B8: chr2:179979976:179979977:-_ENSG00000187231_ENST00000335289|hu_hu|motif|central (ssRNA)
RNA: GGGAGUUCUACAGUCCGACGAUCCCUGUAGCAACUGCCUGCCAUAGUCAUAAGUGCUCUGUGCAACAUCAACAAAUUUUCGGUGCUUUUCCAGCAAAACUUUCGUUUCUUGAGCAUCAUCGCCCAAUCUGAUGUGAGUCUUAACAACAGAGGAUUGAGCAUCA
B9: chr3:32335226:32335227:+_ENSMUSG00000027665_ENSMUST00000108243|mus_hu|FALSE|FALSE (ssRNA)
RNA: GGGAGUUCUACAGUCCGACGAUCUGCUUCUUUAAAUAGUUCAUGCUUUAUGGUUAUUAAUGUAGCCUCACGGAGGCAUUCUAAAGUCACUAUCAUUCCAUUUGGUAGUAAACAUUCUACUAGGAUUCUUGGGGGCAUCAAGUGCAACAGAGGAUUGAGCAUCA
B10: chr4:17845017:17845018:+_ENSG00000109805_ENST00000514176|hu_mus|hu_hu_hu_mus_False|58_58 (ssRNA)
RNA: GGGAGUUCUACAGUCCGACGAUCGCUCUCUUAACUUGUAUCUUCAUUAAGGAACUCUGCAAGGUUAAGUUUACUUUUUCUAGUGCUAGCUGUUUUGGCUCGUCUGGGUAAUCUCAUCUUCAUUUCUGAUGGUGGUUCAUGAUCCAACAGAGGAUUGAGCAUCA
B11: chr9:66815617:66815618:-_ENSMUSG00000032370_ENSMUST00000034929|mus_hu|motif|central (ssRNA)
RNA: GGGAGUUCUACAGUCCGACGAUCGUCAUGGAAUAUUUUCUGCAUAUAGUCCAAAUAUUUACAUCCUGAAGCUCUCUCGGCGGUGGCUGCCAGUAGGGUAUAGCCAAAAGUUGAAUACAAAAACUGACUACCAGGUUUGAAGAACAACAGAGGAUUGAGCAUCA
B12: 108188139_108188259_805_CDS_ENSMUSG00000005698_ENSMUST00000005841|mouse|control|control (ssRNA)
RNA: GGGAGUUCUACAGUCCGACGAUCUGGCUGAUAGUCUGGGUCUUUUUGCCAGCUAGAGUCUUCCUGAGGAGGAAGCUCGCCCUGCUCUAGUGUCUCCACUUCUCCAUUGGCCCCCACUUUCACCACCUGAAAUCCUUCAGGCAACAACAGAGGAUUGAGCAUCA
B13: chr12:120936209:120936210:+_ENSG00000088986_ENST00000242577|hu_hu|FALSE|FALSE (ssRNA)
RNA: GGGAGUUCUACAGUCCGACGAUCUGAGAGAAAACAACGUGGGCAGAAGUAUGGAAUAGAAAAUAAAUACAAAUGUAGGCUAUUCUGCUAAUUGUUUUAUAACCACGACAAACUAGUACAGAGAAUGCCCUGUACAAAACACAACAACAGAGGAUUGAGCAUCA
B14: chr3:179287964:179287965:+_ENSG00000136518_ENST00000429709|hu_hu|hu_hu_hu_mus_True|48_88 (ssRNA)
RNA: GGGAGUUCUACAGUCCGACGAUCCUUGAGUGGUGAGAUGGCCUCCAUAUUCUCCCUGGGCACGCGGAGGGCAUUGGUGUCUAUGUAGUAGGUGGGACCGCCCUGCUUGCCUUUGUCACCAUCAAUCUCCAUCAUUGUACUUCCCAACAGAGGAUUGAGCAUCA

The target in the assay is T1, UNK ZnF1-3 (human, UniProt Q9C0B0 31-174).
T1 sequence: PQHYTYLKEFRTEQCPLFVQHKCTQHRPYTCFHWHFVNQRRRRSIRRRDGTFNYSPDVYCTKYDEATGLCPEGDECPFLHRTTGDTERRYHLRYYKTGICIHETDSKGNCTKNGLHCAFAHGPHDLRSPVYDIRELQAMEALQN
Nature of the assay: nsRBNS (natural sequence RNA bind-n-seq); RBNS binding buffer (assumed for nsRBNS): 25 mM Tris pH 7.5, 150 mM KCl, 3 mM MgCl2, 0.01% Triton X-100, 500 ug/ml BSA, 20 U/ml SUPERase-In, 4 C; UNK is unkempt and MSI1 is Musashi-1; names of the RNAs are library labels; protein concentration not given here; high values mean tight binding.
B1 displayed a binding signal of 1.24 enrichment R. The same measure for B2: 1.43 enrichment R. Molecule B3 showed a binding signal of 1.23 enrichment R. Then B4, with 1.46 enrichment R; and B5, with 1.31 enrichment R. The same measure for B6: 1.75 enrichment R. B7: the binding signal worked out at 0.904 enrichment R. Then B8, with 0.949 enrichment R; and B9, with 1.08 enrichment R; and B10, with 0.36 enrichment R. The same measure for B11: 1.37 enrichment R; for B12: 0.702 enrichment R; for B13: 1.55 enrichment R. Then B14, with 0.661 enrichment R.
